Data published in PubChem BioAssay AID485294 (National Center for Advancing Translational Sciences (NCATS), 2010).
The campaign covered roughly 370,000 compounds. About 150 (0.041%) were called active. The inconclusive results got no clear call from the source; some entries with a clear call stand among them for comparison. Calls follow the shape of the dose curve; as a rule, active = well fitted inhibition curve with a large enough effect; inconclusive = small, poorly fitted or top-dose-only effect; inactive = flat fitted curve, though single readings scatter. Potencies of inconclusive entries are left out as doubtful fits.
Also: nearly all actives have a fitted effect of over 25% in size.
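For activity change, negative = inhibition in this document: 0% = no-compound wells and -100% = no-enzyme wells.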
Potency is read from the fitted curve at half-maximal effect; tags tell the direction and shape of the fitted curve.

These compounds were tested against Beta-lactamase (Escherichia coli (strain K12)) (UniProt P00811) (assay: qHTS Inhibitors of AmpC Beta-Lactamase (assay with detergent)). Settings: AmpC hydrolysis of nitrocefin, absorbance 480 nm, 0.01% Triton; activity change, negative = inhibition: at 114 µM (top of the series).
Chain of UniProt P00811 (P00811 whole entry, looked up): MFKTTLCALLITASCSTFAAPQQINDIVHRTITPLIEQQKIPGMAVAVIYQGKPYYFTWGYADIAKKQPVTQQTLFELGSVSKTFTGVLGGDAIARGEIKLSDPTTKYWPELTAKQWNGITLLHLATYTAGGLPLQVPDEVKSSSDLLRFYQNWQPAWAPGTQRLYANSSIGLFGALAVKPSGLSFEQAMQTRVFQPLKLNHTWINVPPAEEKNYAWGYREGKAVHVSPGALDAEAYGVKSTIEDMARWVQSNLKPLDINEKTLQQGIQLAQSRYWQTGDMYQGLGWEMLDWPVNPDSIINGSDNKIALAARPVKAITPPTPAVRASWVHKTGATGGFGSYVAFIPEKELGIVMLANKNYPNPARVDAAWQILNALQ
Outline: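 20 mM phosphate pH 7.0 + 0.01% (detergent screen) or 0.0001% Triton X-100; 5.3 nM AmpC reagent; cpd preinc 15 min RT; nitrocefin (800 uM stock) to start; A480 q20 s × 4 min; Activity was normalised to no-enzyme and no-compound control wells.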
`CC(C)(C)SCCNC(=O)CN1C(=O)c2ccccc2S1(=O)=O` was tested, and the Potency was inconclusive [inhibitor, full curve, poor fit]. In the case of `C=CCN(C(=O)CCC(=O)Nc1cc(C)on1)C(C(=O)NC(C)(C)C)c1cccc(OC)c1OC` (configuration not stated), the Potency is reported as inconclusive [inhibitor, full curve, poor fit]. In the case of `COc1ccc2[nH]c3c(c2c1)CCN1C(=O)N([C@@H](C)C(=O)NCc2ccccc2)C(=O)[C@]31C`, the Potency is reported as inconclusive [inhibitor, full curve, poor fit]. In the case of `Cc1ccc(OC(C)C(=O)Nc2nonc2-c2ccc(Br)cc2)cc1C` (configuration not stated), the “activity change, negative = inhibition” value is reported as inactive: 22.8%. With `CCOC(=O)Cn1c(=O)oc2cc(S(=O)(=O)N3CCN(c4cccc(C)c4C)CC3)ccc21` the “activity change, negative = inhibition” value was inactive: 3%. For `CC(=O)CCc1oc2ccc(NC(C)=O)cc2c1-c1ccc(C)o1`, the “activity change, negative = inhibition” value was inactive: 0.296%. With `Nc1nc2ccc(NC(=O)c3ccco3)cc2s1` the “activity change, negative = inhibition” value was inactive: 6.97%. With `O=c1c2c3n(c(=O)nc2[nH]n1-c1ccccc1)CCCCC3` the Potency was inconclusive [inhibitor, full curve]. With `Nc1c(C(=O)Nc2ccc3c(c2)OCCO3)nnn1Cc1cccc(F)c1` the Potency was inconclusive [inhibitor, full curve, poor fit]. In the case of `O=C(Nc1ccccc1)c1nnsc1S(=O)(=O)c1ccc(Cl)cc1`, the Potency is reported as inconclusive [inhibitor, single point]. For `Cc1ccc(S(=O)(=O)CCC(=O)OCC(=O)N2c3ccccc3CC2C)cc1` (configuration not stated), the Potency was inconclusive [inhibitor, full curve, poor fit]. In the case of `CCOc1ccc(S(=O)(=O)Nc2cc(SCC(=O)O)c(O)c3ccccc23)cc1`, the Potency is reported as inconclusive [inhibitor, single point]. With `O=C(O)C1C2C=CC(O2)C1C(=O)Nc1ccc2c(c1)OCCO2` (configuration not stated) the Potency was inconclusive [inhibitor, full curve, poor fit]. For `CC(C)Oc1ccc(C(=O)OCC(=O)NC(=O)NC2CCCC2)cc1`, the “activity change, negative = inhibition” value was inactive: -5.78%. `CC(=O)Nc1cccc(-c2nnc(-c3ccc(C)cc3)o2)c1` was tested, and the Potency was inconclusive [inhibitor, partial curve, poor fit]. For `O=C(OCC(=O)N1CCN(c2ccccc2)CC1)c1ccc(Cl)nc1`, the Potency was inconclusive [inhibitor, partial curve]. For `COc1ccc2c3c(c(=O)oc2c1)C1O[C@](CCCCN2C(=O)c4ccccc4C2=O)(Cc2c1ccc1ccccc21)O3`, the Potency was inconclusive [inhibitor, partial curve, poor fit]. In the case of `C=CCN=C1N[C@@H](c2cccc(C(F)(F)F)c2)C(C(=O)OC)=C(C)N1CC`, the Potency is reported as inconclusive [inhibitor, full curve, poor fit]. In the case of `CCCCN(C)CCCNC(=O)C1CCN(c2nc3ccc(CC)cc3s2)CC1`, the “activity change, negative = inhibition” value is reported as inactive: 6.8%. `Cc1nnc(N/N=C/c2ccco2)n1N` was tested, and the “activity change, negative = inhibition” value was inactive: -8.01%. `CCCc1ccc2oc(C(=O)N3CCNC(=O)C3CC(=O)OC)c(C)c2c1` (configuration not stated) was tested, and the “activity change, negative = inhibition” value was inactive: -3.35%. With `O=C(c1ccco1)N1CCN(C(=O)c2ccc(-c3ccc(Cl)cc3)o2)CC1` the Potency was inconclusive [inhibitor, full curve, poor fit]. For `Nc1nc(-c2ccccc2)c(N=Nc2cccc3ccccc23)s1`, the “activity change, negative = inhibition” value was inactive: -3.37%. With `Cc1ccc(N(C)C(=O)c2cc(S(=O)(=O)N3CCCC3)cn2C)cc1` the Potency was inconclusive [inhibitor, full curve]. With `CN(C)c1ccc(C(c2nnnn2C(C)(C)C)N2CCN(C(=O)c3ccco3)CC2)cc1` (configuration not stated) the Potency was inconclusive [inhibitor, full curve]. With `C(=N\n1cnnc1)/c1cn(Cc2ccccc2)c2ccccc12` the Potency was inconclusive [inhibitor, partial curve]. For `Cn1nnnc1Sc1ncnc2scc(-c3ccc(F)cc3)c12`, the “activity change, negative = inhibition” value was inactive: 2.89%. With `Cc1nnc(SCc2ccccc2)n(N)c1=O` the Potency was inconclusive [inhibitor, partial curve, poor fit]. In the case of `CCOC(=O)CN1CC23C=CC(O2)C(C(=O)Nc2ccc(C(C)=O)cc2)C3C1=O` (configuration not stated), the Potency is reported as inconclusive [inhibitor, full curve]. For `Clc1cccc(Cl)c1COc1ccncc1`, the “activity change, negative = inhibition” value was inactive: -0.961%. With `Cc1nc(NC(=O)CSc2ccc(-c3nc4ccccc4[nH]3)cn2)sc1C` the Potency was inconclusive [inhibitor, full curve, poor fit]. In the case of `C/C=C(\C)C(=O)OC1c2c(ccc3ccc(=O)oc23)OC(C)(C)C1OC(C)=O` (configuration not stated), the “activity change, negative = inhibition” value is reported as inactive: 1.52%. `Nc1ccc(-c2nc3ccccc3[nH]2)cc1` was tested, and the Potency was inconclusive [inhibitor, full curve, poor fit]. With `Cc1ccc(S(=O)(=O)CCNC(=O)Cc2ccc(Cl)cc2)cc1` the Potency was inconclusive [inhibitor, partial curve]. For `O=C(c1n[nH]c(=O)c2ccccc12)N1CCN(c2ccc(F)cc2)CC1`, the Potency was inconclusive [inhibitor, partial curve, poor fit]. With `CC1CCN(c2nc3c(c(=O)n(C)c(=O)n3C)n2CCSc2nc3ccccc3o2)CC1` the Potency was inconclusive [inhibitor, full curve]. For `O=C(Nc1ccc(F)cc1)Nc1nnc(-c2ccco2)s1`, the Potency was inconclusive [inhibitor, full curve, poor fit]. With `Cc1ccc(CNC(=O)c2cc3c(=O)n4ccccc4nc3n(Cc3ccco3)c2=N)cc1` the Potency was inconclusive [inhibitor, full curve, poor fit]. `CCCCn1c(N)c(N(CCOC)C(=O)COC(=O)CSc2cc(C)c3ccccc3n2)c(=O)[nH]c1=O` was tested, and the Potency was inconclusive [inhibitor, full curve, poor fit]. With `COCCCNC(=O)c1c[nH]c2ccc(S(=O)(=O)N3CCC(C)CC3)cc2c1=O` the Potency was inconclusive [inhibitor, single point]. `COc1ccc(NC(=S)NC(=O)CC(C)C)c(OC)c1` was tested, and the Potency was inconclusive [inhibitor, full curve, poor fit]. With `S=C(NCCc1ccccc1)Nc1cnc2ccccc2c1` the “activity change, negative = inhibition” value was inactive: -14.1%.
